Where “and” joins values, the source holds several entries; their conditions need not be identical. Equal entries are not always repeated. The list shows a part of the results. The main result of the screen is listed elsewhere. These columns were measured beside it and carry no call.
Tests used:
Test in all cases: Primary Screen for Target Class Profiling of Small Molecule Inhibitors of Methyltransferases
[1] = molecular target: Glycine N-methyltransferase (Homo sapiens) (UniProt Q14749); conditions: purified enzyme, MTase-Glo SAH luminescence; measured here: GNMT inhibition; at 40 µM; stronger effect = lower value
Outline: (§1)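 Each enzyme was assayed with SAM and its substrate. SAH formation detected by MTase-Glo luminescence; single-point 40 uM screen[…].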

[2] = molecular target: Guanidinoacetate N-methyltransferase (Homo sapiens) (UniProt Q14353); conditions: purified enzyme, MTase-Glo SAH luminescence; measured here: GAMT inhibition; at 40 µM; stronger effect = lower value
Outline: as §1

[3] = molecular target: Histamine N-methyltransferase (Homo sapiens) (UniProt P50135); conditions: purified enzyme, MTase-Glo SAH luminescence; measured here: HNMT inhibition; at 40 µM; stronger effect = lower value
Outline: as §1

[4] = molecular target: Nicotinamide N-methyltransferase (Homo sapiens) (UniProt P40261); conditions: purified enzyme, MTase-Glo SAH luminescence; measured here: NNMT inhibition; at 40 µM; stronger effect = lower value
Outline: as §1

[5] = molecular target: Phenylethanolamine N-methyltransferase (Homo sapiens) (UniProt P11086); conditions: purified enzyme, MTase-Glo SAH luminescence; measured here: PNMT inhibition; at 40 µM; stronger effect = lower value
Outline: as §1
On the % scale 0 is the no-effect control and ±100 the full control effect.

Structure (SMILES)	activity change, negative = inhibition [1]	activity change, negative = inhibition [2]	activity change, negative = inhibition [3]	activity change, negative = inhibition [4]	activity change, negative = inhibition [5]
Cc1ccc(C)c(NS(=O)(=O)c2ccc3[nH]c4c(c3c2)CCCC4)c1	3.84%	0%	4.94%	-11.3%	3.94%
O=C(NCCc1c[nH]c2ccc(Cl)cc12)c1cc2n(n1)CCCN(Cc1ccccc1)C2=O	-12.1%	0.647%	-0.515%	-7.16%	-0.767%
CC(C)CCO[C@H]1COCCN(C2CCN(C)CC2)C1	-6.47%	-6.42%	-5.03%	-16%	-6.88%
CN1C(=O)c2cc(C(=O)NCCN3CCCCC3)nn2CC1(C)C(=O)NCc1ccc(F)cc1 (stereo not given)	7.64%	0.125%	-2.46%	7.19%	6.87%
CC1OC(OCC2OC(OC3CCC4(C)C(CCC5(C)C4CC=C4C6CC(C)(C)CCC6(C(=O)OC6OC(CO)C(O)C(O)C6O)CCC45C)C3(C)CO)C(O)C(O)C2O)C(O)C(O)C1O (stereo not given)	3.27%	5.45%	11%	-6.58%	1.17%
O=C(O)c1cc(=O)c2ccccc2[nH]1	-8.24%	2.58%	-0.499%	-7.16%	0.83%
CC(C)(C)c1ccc(S(=O)(=O)N2CCC(n3c(=O)[nH]c4ccccc43)CC2)cc1	-11%	4.46%	-5.55%	-13.2%	-5.68%
CC(C)NC(=O)N1CCOc2ccc(CCC(=O)NCCc3cccnc3)cc2C1	-4.07%	2.7%	-1.49%	-5.36%	11.5%
CCCOC(=O)Cn1c(=O)oc2cc(S(=O)(=O)NCC(C)c3ccccc3)ccc21 (stereo not given)	3.28%	0.425%	9.83%	-2.66%	5.28%
COc1ccc(C(=O)N2CC[C@@](O)(C3CCOCC3)[C@H](C)C2)o1	-0.325%	3.53%	1.89%	-2.11%	17.2%
CO[C@@H]1[C@@H](O[C@H]2O[C@@H](C)[C@H](O[C@@H]3C[C@](C)(O)[C@H](O)[C@@H](C)O3)[C@@H](N(C)C)[C@@H]2O)[C@@H](CC=O)C[C@@H](C)[C@@H](O[C@H]2CC[C@H](N(C)C)[C@H](C)O2)/C=C/C=C/C[C@@H](C)OC(=O)C[C@H]1O	0.75%	5.06%	-4.33%	-1.12%	-3.19%
COc1ccc(CN2C(=O)c3cc4ccccc4n3CC2(C)C(=O)NCCCOC(C)C)c(OC)c1 (stereo not given)	1.24%	1.2%	3.47%	0.234%	-0.722%
COc1cccc(-c2cc(F)ccc2C2Cc3nc(N)nc(C)c3C(=O)N2)n1 (stereo not given)	-4.53%	-5.37%	5.22%	-42.8%	-6.07%
Cc1cc(C)c(NC(=O)N(Cc2ccc3c(c2)Cc2ccccc2-3)C2CCCCCC2)c(C)c1	3.46%	-37.5%	2.36%	-51.8%	-18.2%
CN(C)[C@@H]1CN(C(=O)CCc2ccccc2)CC[C@]1(O)c1ccccc1	-6.26%	-9.79%	-4.88%	-17.6%	-5.75%
COC(=O)C1=CO[C@@H](O[C@@H]2O[C@H](CO)[C@@H](O)[C@H](O)[C@H]2O)[C@@H]2[C@@H](CO)[C@@H](O)C(O)[C@H]12 (stereo not given in full)	3.5%	2.32%	11.1%	-9.14%	5.9%
COc1ccc(OC)c(S(=O)(=O)N2CCCCC2c2noc(COCC3CC3)n2)c1 (stereo not given)	4.8%	0%	4.26%	-3.55%	1.2%
O=C(Cn1c(=O)oc2cc(S(=O)(=O)N3CCCCC3)ccc21)N1CCCCC1	-2.92%	3.01%	-2.95%	10.4%	-4.63%
Cc1noc2c(NC3CCC(O)CC3)cc(-c3cccnc3)nc12 (stereo not given)	-7.91%	-7.41%	-8.56%	-13.3%	-3.12%
COC(=O)c1ccc(COCC2=CC(C)(C)Oc3ccc(OC)cc32)cc1	-5.59%	-6.97%	-0.75%	-15.9%	-5.28%

Structure (SMILES)	activity change, negative = inhibition [1]	activity change, negative = inhibition [2]	activity change, negative = inhibition [3]	activity change, negative = inhibition [4]	activity change, negative = inhibition [5]
O=c1cc(N2CCOCC2)oc2c(-c3ccccc3)cccc12	-25.1% and 7.08%	2.02%	-10% and 8.95%	-15.7% and -19.9%	0.033% and -5.66%
O=C(c1cccs1)N1Cc2[nH]cnc2C[C@H]1c1nc(-c2ccc3ccccc3c2)no1	-13.4%	-7.78%	-8.3%	-12.4%	-32.6%
O=C(CC1CCCCC1)N1CC(n2cc(COCC3CC3)nn2)C1	-2.51%	-3.94%	-0.269%	-4.42%	-1.4%
OC[C@H]1O[C@@H](Oc2ccc(O)c3cccc(O)c23)[C@H](O)[C@@H](O)[C@@H]1O	0%	-33.7%	-9.49%	-34.8%	-50.2%
CN1CCCN(C(=O)c2ccccc2F)c2ccccc21	-4.68%	-4.82%	-6.73%	-9.3%	-8.21%
CCOc1ccc(CCNS(=O)(=O)c2ccc3oc(=O)c4ncn(C)c4c3c2)cc1OCC	-2.52%	-1.52%	-3.06%	4.9%	-6.76%
CN1C(=O)C(c2ccccc2)CC12CCN(C(=O)c1ccc(F)cc1)CC2 (stereo not given)	-4.32%	-3.68%	-0.368%	-9.79%	-4.17%
Cc1cc2c(cc3n2CC(C)(C(=O)NC2CCCCCCC2)N(Cc2cccs2)C3=O)o1 (stereo not given)	-4.93%	3.4%	1.72%	-16.7%	-1.74%
CC(C)CCNC(=O)C1c2c(n(C)c3ccccc23)SCC(=O)N1Cc1ccco1 (stereo not given)	15%	0%	6.46%	6.65%	7.77%
COCCN1CC2(CCCN(C(=O)CNC(N)=O)C2)CCC1=O (stereo not given)	1.97%	0.678%	4.15%	-3.25%	3.13%
CC1(C(=O)NC2CCCCCCC2)Cn2c(cc3occc32)C(=O)N1Cc1cccnc1 (stereo not given)	-1.12%	4.87%	4.7%	2.72%	-1.04%
O=C(c1ccccn1)N1CCC(N2CCCC2=O)CC1	-5.18%	-11.7%	-3.82%	-8.27%	-4.09%
Cc1ccc(Cn2c(=O)c3ccccc3n3c(CCC(=O)NC(C)C)nnc23)cc1	-8.25%	5.1%	2.62%	6.2%	-9.76%
O=C(O)C1CN(CCCP(=O)(O)O)CCN1 (stereo not given)	4.32%	-7.76%	5.73%	-10.1%	-5.23%
CC(C)CCn1c(=O)c2ccc(C(=O)NC3CCCCC3)cc2n2c(=O)[nH]nc12	-5.62%	2.21%	-2.82%	-3.72%	-9.42%
COCCNC(=O)CCCc1nnc2n3nc(-c4ccccc4)nc3c3ccccc3n12	0.664%	4.47%	5.76%	8.81%	1.38%
CC(C)c1ccc(N2C[C@]34C=C[C@H](O3)C(C(=O)N3CCSCC3)C4C2=O)cc1 (stereo not given in full)	-3.09%	-1.49%	1.88%	-2.2%	-1.52%
C=CCN1CC2(CCC1=O)CCN(C(=O)C1CC=CCC1)CC2 (stereo not given)	-2.07%	-1.74%	0%	-8.34%	-0.219%
O=C(Nc1ccccc1F)N1Cc2c(sc3c2CCCC3)-n2cccc2C1c1ccc(F)cc1 (stereo not given)	3.56%	0%	4.62%	-1.26%	6.79%
Cc1ccc(CNC(=O)Cn2nc3n(CCCOC(C)C)c(=O)c4ccccc4n3c2=O)cc1	-1.35%	3.52%	0.452%	1.56%	1.65%

Structure (SMILES)	activity change, negative = inhibition [1]	activity change, negative = inhibition [2]	activity change, negative = inhibition [3]	activity change, negative = inhibition [4]	activity change, negative = inhibition [5]
CCCn1c(=O)c2ccc(C(=O)NC(C)C)cc2n2c(=O)n(CC(=O)Nc3cccc(F)c3)nc12	-2.56%	2.01%	-3.8%	-6.82%	-1.93%
C[S+](=O)([O-])N1CC2(Cc3ccccc31)CN(C(=O)c1ccc(F)cc1)C2	-7.64%	-1.89%	0.955%	-5.06%	-0.659%
Cc1nccnc1CN1CCC2(CC1)CCN(Cc1ncc[nH]1)CC2CO (stereo not given)	-1.25%	0.912%	-0.642%	-1.37%	1.13%
CSCCC(NS(=O)(=O)c1ccc2c(c1)oc(=O)n2C)C(=O)N1CCC(Cc2ccccc2)CC1 (stereo not given)	4.49%	0%	8.16%	-5.81%	-1.46%
CC1=C2CC3OC3(C)CCC3OC3(C)CC2OC1=O (stereo not given)	5.79%	2.56%	6.72%	-8.31%	-1.44%
O=C(c1ccccc1)N1CCC(c2nnc3n2C(C(=O)N2CCN(c4ncccn4)CC2)CC3)CC1 (stereo not given)	-1.82%	-1.72%	-0.348%	-5.6%	-2.39%
COc1ccc(CNC(=O)c2sc(=S)n3c2[nH]c(=O)c2cc4c(cc23)OCO4)cc1	-6.49%	0%	3.61%	-2.63%	-3.45%
O=C(Cc1ccccc1)OC[C@H]1O[C@H](O[C@H]2O[C@H](CO)[C@@H](O)[C@H](O)[C@H]2O)[C@H](O)[C@@H](O)[C@@H]1O	1.19%	2.38%	10.8%	-10.5%	-6.08%
O=C(N1CCC(Cc2nc(C3CC3)n[nH]2)CC1)C1(c2ccccc2)CC1	-2.27%	0.134%	1.19%	-4.3%	-2.57%
CC(C)C1c2cccn2CCN1C(=O)Nc1ccc(F)cc1 (stereo not given)	15.5%	0.408%	7.96%	9.29%	7.78%
CCCCN1C(=O)c2cc(C(=O)Nc3ccc(OC)cc3OC)nn2CC1(C)C(=O)NC1CCCC1 (stereo not given)	6.43%	0.014%	2.9%	6.07%	9.52%
CN(CC(=O)NC1CCCCC1)S(=O)(=O)c1ccc2[nH]c3c(c2c1)CCCC3	2.52%	0.8%	1.65%	-5.26%	1.78%
COc1cc2ncnc(Nc3ccc(F)c(Cl)c3)c2cc1O	-27.6%	-6.95%	-42.8%	-21.1%	-24.7%
CCCC1c2ccc(C)n2CCN1C(=O)Nc1ccc(C)c(F)c1 (stereo not given)	-5.62%	4.93%	-7.66%	0.121%	-4%
CCc1cc2c(cc3n2CC(C)(C(=O)NC2CCCCC2)N(c2ccc(C(C)C)cc2)C3=O)s1 (stereo not given)	5.5%	0.143%	9.56%	16.1%	3.81%
CC(=O)Nc1ccc(NC(=O)C2c3ccccc3C(=O)N(C3CCCC3)C23CCCC3)cc1 (stereo not given)	-5.76%	-10.5%	-7.34%	-15.7%	-23.3%
COc1ccccc1CNC(=O)C1(C)Cn2c(cc3ccccc32)C(=O)N1Cc1ccc2c(c1)OCO2 (stereo not given)	-2.52%	-1.22%	1.74%	-4.53%	-2.15%
C[C@@H]1O[C@@H](O[C@H]2[C@H](O[C@H]3CC[C@@]4(C)C(CC[C@]5(C)C4C=C[C@]46OC[C@@]7(CCC(C)(C)C[C@H]74)[C@@H](O)C[C@]65C)[C@]3(C)CO)O[C@H](CO)[C@@H](O)[C@@H]2O[C@@H]2O[C@H](CO)[C@@H](O[C@@H]3O[C@@H](C)[C@H](O)[C@@H](O)[C@H]3O)[C@H](O)[C@H]2O)[C@H](O)[C@H](O)[C@H]1O (stereo not given in full)	-3.35%	-5.96%	4.21%	-11.9%	-0.478%

Reference: PubChem BioAssay AID1745853 (National Center for Advancing Translational Sciences (NCATS), 2022)
